Assay results as given in patent US20260216242A1 (ALMAC DISCOVERY, published 2026).

T1: human ALPL (tissue non-specific alkaline phosphatase) expressed on the surface of CHO cells (human, UniProt P05186 18-501)
T1 sequence (looked up): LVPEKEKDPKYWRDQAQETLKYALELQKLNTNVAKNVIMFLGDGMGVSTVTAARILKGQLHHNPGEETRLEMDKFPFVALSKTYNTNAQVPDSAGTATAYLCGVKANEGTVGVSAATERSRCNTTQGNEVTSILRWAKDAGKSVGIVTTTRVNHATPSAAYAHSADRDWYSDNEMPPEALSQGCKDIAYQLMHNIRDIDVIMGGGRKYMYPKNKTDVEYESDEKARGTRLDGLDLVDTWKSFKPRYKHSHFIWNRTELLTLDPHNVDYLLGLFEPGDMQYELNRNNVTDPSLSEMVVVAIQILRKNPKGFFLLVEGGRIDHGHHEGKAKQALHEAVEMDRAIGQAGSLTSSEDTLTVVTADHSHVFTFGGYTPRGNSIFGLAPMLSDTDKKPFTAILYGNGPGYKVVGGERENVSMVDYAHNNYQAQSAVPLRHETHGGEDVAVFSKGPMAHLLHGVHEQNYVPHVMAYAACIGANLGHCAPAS

T2: human ALPI (intestinal alkaline phosphatase) expressed on the surface of CHO cells (human, UniProt P09923 20-503)
T2 sequence (looked up): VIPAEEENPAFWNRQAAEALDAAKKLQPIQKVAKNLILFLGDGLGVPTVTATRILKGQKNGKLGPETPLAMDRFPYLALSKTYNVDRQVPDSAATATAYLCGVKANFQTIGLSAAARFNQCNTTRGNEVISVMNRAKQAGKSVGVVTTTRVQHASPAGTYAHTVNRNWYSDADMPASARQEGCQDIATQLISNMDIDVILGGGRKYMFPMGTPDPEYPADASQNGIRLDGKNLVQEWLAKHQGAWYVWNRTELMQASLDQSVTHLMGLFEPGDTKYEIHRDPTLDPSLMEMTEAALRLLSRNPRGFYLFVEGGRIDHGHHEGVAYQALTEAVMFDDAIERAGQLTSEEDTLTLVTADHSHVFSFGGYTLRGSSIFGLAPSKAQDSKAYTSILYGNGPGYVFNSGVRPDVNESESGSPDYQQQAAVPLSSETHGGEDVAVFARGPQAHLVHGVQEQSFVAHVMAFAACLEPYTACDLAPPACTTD

B1: D10 E10-hFc (S239C T366Y/Y407T), [G4S]3 linker, MA-PEG4-vc-PAB-EDA-PNU159682 conjugate, #880 (Fc fusion, DAR 2.02)
chain 1: QVQLVESGGGLVQPGGSLRLSCAASGSIFSVNTMGWYRQAPGKQRDLVAVATSGGTIHYADSVKGRFTISRDNAKNTVYLQMNSLKPEDTAVYYCNLVVPYGMIAGDHDYWGQGTKVTVSSGGGGSGGGGSGGGGS[human IgG1 Fc with C220S S239C T366Y (EU numbers) not spelt out]
chain 2: QVQLVESGGGLVQAGGSLRLSCAVSGRALSDYNIGWFRQAPGKEREFVARKTWDGSSTRYDDSVKGRFTVSIEDAKNTAYLQMSSLKTEDTAVYYCAAGRYSRARGWEYDYWGQGTQVTVSSGGGGSGGGGSGGGGS[human IgG1 Fc with C220S S239C Y407T (EU numbers) not spelt out]
modifications: MA-PEG4-vc-PAB-EDA-PNU159682 on Cys of S239C (EU numbering)
B2: A06 F05-hFc (S239C T366Y/Y407T), [G4S]3 linker, MA-PEG4-vc-PAB-EDA-PNU159682 conjugate, #883 (Fc fusion, DAR 2.03)
chain 1: QVHLVESGGGLVQAGGSLRLSCAASGRTFLSMGWFRQAPGKEREFVAAISWTGGSTGYADSVKGRFTISRESDKETMYLQMNSLKPEDTAVYYCAARGDVYYGGDDATRYKYWGQGTQVTVSSGGGGSGGGGSGGGGS[human IgG1 Fc with C220S S239C T366Y (EU numbers) not spelt out]
chain 2: B1 chain 2 with V24A, L29F, S30G, K51R, E73D, D74N, S84N, A104V
modifications: MA-PEG4-vc-PAB-EDA-PNU159682 on Cys of S239C (EU numbering)
B3: D10 F05-hFc (S239C T366Y/Y407T), [G4S]3 linker, MA-PEG4-vc-PAB-EDA-PNU159682 conjugate, #882 (Fc fusion, DAR 1.94)
chain 1: B1 chain 1
chain 2: B1 chain 2 with V24A, L29F, S30G, K51R, E73D, D74N, S84N, A104V
modifications: MA-PEG4-vc-PAB-EDA-PNU159682 on Cys of S239C (EU numbering)
B4: D10 E06-hFc (S239C T366Y/Y407T), [G4S]3 linker, MA-PEG4-vc-PAB-EDA-PNU159682 conjugate, #881 (Fc fusion, DAR 2.02)
chain 1: B1 chain 1
chain 2: QVHLVESGGGLVQAGGSLRLSCAASRRSFSEYAMGWFRQAPGKEREFVAAIGWSGVIEYADSVKGRFTISRDNAKDTVYLQMNSLKPEDTAVYYCAAGLGIRVVSQTPAYWGQGTQVTVSSGGGGSGGGGSGGGGS[human IgG1 Fc with C220S S239C Y407T (EU numbers) not spelt out]
modifications: MA-PEG4-vc-PAB-EDA-PNU159682 on Cys of S239C (EU numbering)
B5: D10 E06-hFc (S239C T366Y/Y407T), [G4S]1 linker, MA-PEG4-vc-PAB-EDA-PNU159682 conjugate, #884 (Fc fusion, DAR 2.03)
chain 1: QVQLVESGGGLVQPGGSLRLSCAASGSIFSVNTMGWYRQAPGKQRDLVAVATSGGTIHYADSVKGRFTISRDNAKNTVYLQMNSLKPEDTAVYYCNLVVPYGMIAGDHDYWGQGTKVTVSSGGGGS[human IgG1 Fc with C220S S239C T366Y (EU numbers) not spelt out]
chain 2: QVHLVESGGGLVQAGGSLRLSCAASRRSFSEYAMGWFRQAPGKEREFVAAIGWSGVIEYADSVKGRFTISRDNAKDTVYLQMNSLKPEDTAVYYCAAGLGIRVVSQTPAYWGQGTQVTVSSGGGGS[human IgG1 Fc with C220S S239C Y407T (EU numbers) not spelt out]
modifications: MA-PEG4-vc-PAB-EDA-PNU159682 on Cys of S239C (EU numbering)
B6: D10 E10-hFc (S239C T366Y/Y407T), [G4S]1 linker, MA-PEG4-vc-PAB-EDA-PNU159682 conjugate, #885 (Fc fusion, DAR 2.02)
chain 1: B5 chain 1
chain 2: QVQLVESGGGLVQAGGSLRLSCAVSGRALSDYNIGWFRQAPGKEREFVARKTWDGSSTRYDDSVKGRFTVSIEDAKNTAYLQMSSLKTEDTAVYYCAAGRYSRARGWEYDYWGQGTQVTVSSGGGGS[human IgG1 Fc with C220S S239C Y407T (EU numbers) not spelt out]
modifications: MA-PEG4-vc-PAB-EDA-PNU159682 on Cys of S239C (EU numbering)
B7: D10 F05-hFc (S239C T366Y/Y407T), [G4S]1 linker, MA-PEG4-vc-PAB-EDA-PNU159682 conjugate, #886 (Fc fusion, DAR 2.01)
chain 1: B5 chain 1
chain 2: B6 chain 2 with V24A, L29F, S30G, K51R, E73D, D74N, S84N, A104V
modifications: MA-PEG4-vc-PAB-EDA-PNU159682 on Cys of S239C (EU numbering)
B8: A06 E10-hFc (S239C F405L/K409R) conjugated to MC-vc-PAB-MMAE (Fc fusion, DAR 2)
chain 1: QVHLVESGGGLVQAGGSLRLSCAASGRTFLSMGWFRQAPGKEREFVAAISWTGGSTGYADSVKGRFTISRESDKETMYLQMNSLKPEDTAVYYCAARGDVYYGGDDATRYKYWGQGTQVTVSSGGGGSGGGGSGGGGS[human IgG1 Fc with changes not spelt out]
chain 2: QVQLVESGGGLVQAGGSLRLSCAVSGRALSDYNIGWFRQAPGKEREFVARKTWDGSSTRYDDSVKGRFTVSIEDAKNTAYLQMSSLKTEDTAVYYCAAGRYSRARGWEYDYWGQGTQVTVSSGGGGSGGGGSGGGGS[human IgG1 Fc with changes not spelt out]
modifications: MC-vc-PAB-MMAE on Cys 239 (S239C, EU numbering)
B9: D10 E10-hFc (S239C F405L/K409R) conjugated to MC-vc-PAB-MMAE (Fc fusion, DAR 2)
chain 1: QVQLVESGGGLVQPGGSLRLSCAASGSIFSVNTMGWYRQAPGKQRDLVAVATSGGTIHYADSVKGRFTISRDNAKNTVYLQMNSLKPEDTAVYYCNLVVPYGMIAGDHDYWGQGTKVTVSSGGGGSGGGGSGGGGS[human IgG1 Fc with changes not spelt out]
chain 2: QVQLVESGGGLVQAGGSLRLSCAVSGRALSDYNIGWFRQAPGKEREFVARKTWDGSSTRYDDSVKGRFTVSIEDAKNTAYLQMSSLKTEDTAVYYCAAGRYSRARGWEYDYWGQGTQVTVSSGGGGSGGGGSGGGGS[human IgG1 Fc with changes not spelt out]
modifications: MC-vc-PAB-MMAE on Cys 239 (S239C, EU numbering)
B10: A06 F05-hFc (S239C F405L/K409R) conjugated to MC-vc-PAB-MMAE (Fc fusion, DAR 2)
chain 1: QVHLVESGGGLVQAGGSLRLSCAASGRTFLSMGWFRQAPGKEREFVAAISWTGGSTGYADSVKGRFTISRESDKETMYLQMNSLKPEDTAVYYCAARGDVYYGGDDATRYKYWGQGTQVTVSSGGGGSGGGGSGGGGS[human IgG1 Fc with changes not spelt out]
chain 2: QVQLVESGGGLVQAGGSLRLSCAASGRAFGDYNIGWFRQAPGKEREFVARRTWDGSSTRYDDSVKGRFTVSIDNAKNTAYLQMNSLKTEDTAVYYCAAGRYSRVRGWEYDYWGQGTQVTVSSGGGGSGGGGSGGGGS[human IgG1 Fc with changes not spelt out]
modifications: MC-vc-PAB-MMAE on Cys 239 (S239C, EU numbering)
B11: A06 E06-hFc (S239C F405L/K409R) conjugated to MC-vc-PAB-MMAE (Fc fusion, DAR 2)
chain 1: QVHLVESGGGLVQAGGSLRLSCAASGRTFLSMGWFRQAPGKEREFVAAISWTGGSTGYADSVKGRFTISRESDKETMYLQMNSLKPEDTAVYYCAARGDVYYGGDDATRYKYWGQGTQVTVSSGGGGSGGGGSGGGGS[human IgG1 Fc with changes not spelt out]
chain 2: QVHLVESGGGLVQAGGSLRLSCAASRRSFSEYAMGWFRQAPGKEREFVAAIGWSGVIEYADSVKGRFTISRDNAKDTVYLQMNSLKPEDTAVYYCAAGLGIRVVSQTPAYWGQGTQVTVSSGGGGSGGGGSGGGGS[human IgG1 Fc with changes not spelt out]
modifications: MC-vc-PAB-MMAE on Cys 239 (S239C, EU numbering)
B12: D10 F05-hFc (S239C F405L/K409R) conjugated to MC-vc-PAB-MMAE (Fc fusion, DAR 2)
chain 1: QVQLVESGGGLVQPGGSLRLSCAASGSIFSVNTMGWYRQAPGKQRDLVAVATSGGTIHYADSVKGRFTISRDNAKNTVYLQMNSLKPEDTAVYYCNLVVPYGMIAGDHDYWGQGTKVTVSSGGGGSGGGGSGGGGS[human IgG1 Fc with changes not spelt out]
chain 2: QVQLVESGGGLVQAGGSLRLSCAASGRAFGDYNIGWFRQAPGKEREFVARRTWDGSSTRYDDSVKGRFTVSIDNAKNTAYLQMNSLKTEDTAVYYCAAGRYSRVRGWEYDYWGQGTQVTVSSGGGGSGGGGSGGGGS[human IgG1 Fc with changes not spelt out]
modifications: MC-vc-PAB-MMAE on Cys 239 (S239C, EU numbering)

molecular target: T1, human ALPL (tissue non-specific …); test: cell-based or functional assay

Binder	IC50 at 96 h, cell-killing of CHO-ALPL cells
B1	774 nM
B2	858 nM
B3	880 nM
B4	867 nM
B5	724 nM
B6	800 nM
B7	831 nM

molecular target: T2, human ALPI (intestinal alkaline …); test: cell-based or functional assay

Binder	IC50 at 96 h, cell-killing of CHO-ALPI cells
B1	549 nM
B2	513 nM
B3	586 nM
B4	600 nM
B5	525 nM
B6	579 nM
B7	552 nM

molecular target: human ALPP (alkaline phosphatase, placental type) expressed on the surface of CHO cells (human, UniProt P05187 23-506); test: cell-based or functional assay

Binder	IC50 at 96 h, cell-killing of CHO-ALPP cells
B1	3.2 nM
B2	5.7 nM
B3	3.6 nM
B4	5.9 nM
B5	3.4 nM
B6	4 nM
B7	3.5 nM

molecular target: human ALPPL2 (alkaline phosphatase, germ cell type) expressed on the surface of CHO cells (human, UniProt P10696 20-503); test: cell-based or functional assay

Binder	IC50 at 96 h, cell-killing of CHO-ALPPL2 cells
B1	2.9 nM
B2	2.2 nM
B3	3.5 nM
B4	4.6 nM
B5	4.3 nM
B6	3.2 nM
B7	2.7 nM

molecular target: human ALPP (alkaline phosphatase, placental type) stably expressed on the surface of CHO cells (human, UniProt P05187 23-506); test: cell-based or functional assay

Binder	IC50 @ 96 h (nM), cell-killing of CHO-ALPP cells (Cell Titre Glo)
B8	18.8 nM
B9	38.9 nM
B10	36.4 nM
B11	27.1 nM
B12	37.2 nM

molecular target: human ALPPL2 (alkaline phosphatase, germ cell type) stably expressed on the surface of CHO cells (human, UniProt P10696 20-503); test: cell-based or functional assay

Binder	IC50 @ 96 h (nM), cell-killing of CHO-ALPPL2 cells (Cell Titre Glo)
B8	34.9 nM
B9	39.3 nM
B10	45.5 nM
B11	23.8 nM
B12	38.6 nM

Residue numbers refer to the chain shown, from its start. Names and notes keep the numbering of the source.
